Experimental data as given in paper PMC4336329 (PLoS ONE, 2015).
In all, about 310,000 compounds went through this assay and about 2,200 (0.71%) showed an effect of 50% or more. The effect is printed as a negative number. Some of the results follow.

target: human ether-à-go-go-related gene (hERG) potassium channel (human, UniProt Q12809); experiment: primary screen, population patch clamp on CHO cells stably expressing hERG
Sequence (Q12809 whole entry, looked up): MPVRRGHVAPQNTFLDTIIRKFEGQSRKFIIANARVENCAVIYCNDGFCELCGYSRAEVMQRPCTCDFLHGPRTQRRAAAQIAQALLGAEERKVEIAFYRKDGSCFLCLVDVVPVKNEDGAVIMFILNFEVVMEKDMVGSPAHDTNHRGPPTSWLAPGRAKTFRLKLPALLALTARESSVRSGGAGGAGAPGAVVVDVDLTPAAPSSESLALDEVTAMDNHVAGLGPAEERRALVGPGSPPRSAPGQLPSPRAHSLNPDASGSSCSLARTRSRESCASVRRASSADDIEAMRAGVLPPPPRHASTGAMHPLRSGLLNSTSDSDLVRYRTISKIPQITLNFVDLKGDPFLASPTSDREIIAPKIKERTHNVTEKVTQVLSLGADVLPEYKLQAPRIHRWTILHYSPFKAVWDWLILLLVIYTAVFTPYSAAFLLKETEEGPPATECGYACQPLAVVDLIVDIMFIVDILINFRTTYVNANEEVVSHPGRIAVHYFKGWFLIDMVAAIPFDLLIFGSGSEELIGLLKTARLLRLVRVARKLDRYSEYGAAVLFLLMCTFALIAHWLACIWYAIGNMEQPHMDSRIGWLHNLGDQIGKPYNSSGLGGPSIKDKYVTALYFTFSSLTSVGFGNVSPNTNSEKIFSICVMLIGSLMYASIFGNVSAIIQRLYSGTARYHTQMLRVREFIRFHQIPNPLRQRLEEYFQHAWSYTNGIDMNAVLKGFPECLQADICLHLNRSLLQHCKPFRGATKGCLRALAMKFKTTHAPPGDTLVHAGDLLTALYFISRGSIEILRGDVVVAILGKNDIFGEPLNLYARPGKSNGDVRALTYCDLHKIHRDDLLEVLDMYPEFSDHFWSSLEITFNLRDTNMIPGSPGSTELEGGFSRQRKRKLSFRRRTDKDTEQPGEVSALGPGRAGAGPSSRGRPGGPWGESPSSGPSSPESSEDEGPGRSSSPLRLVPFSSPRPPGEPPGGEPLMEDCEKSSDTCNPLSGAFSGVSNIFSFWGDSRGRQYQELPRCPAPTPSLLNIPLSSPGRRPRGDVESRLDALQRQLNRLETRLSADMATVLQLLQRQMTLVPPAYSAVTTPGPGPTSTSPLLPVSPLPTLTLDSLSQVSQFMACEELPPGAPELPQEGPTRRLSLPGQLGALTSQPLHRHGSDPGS

| SMILES | hERG current change (%, negative = inhibition) at 1uM [%] |
| --- | --- |
| Cc1nnc(NC(=O)CN2CC(C)OC(C)C2)s1 (centres unmarked) | 4.98 |
| CCOC(=O)C1CCN(C(=O)c2ccc(N3CCCC3=O)cc2)CC1 | 8.86 |
| COc1cccc2cc(-c3cc(=O)oc4cc(C)c(OCC(C)=O)cc34)oc12 | 12.8 |
| COc1ccc(Sc2ccccc2CN(C)C)cc1OC.Cl | 7.85 |
| CCCNC(=O)c1ccccc1NC(=O)COc1cccc2c1OC(C)(C)C2 | 12.4 |
| C=CCSc1n[nH]c2nc3c(c(=O)n12)C1(CCCC1)Cc1ccccc1-3 | 12.8 |
| S=c1[nH]nc(CSCCOc2ccc(Cl)cc2Cl)o1 | 10.1 |
| Nc1[nH]n2c(=O)cc(-c3ccccc3)nc2c1N=Nc1ccccc1 | 12.5 |
| Cc1ccc(NC(=O)CN2CCN(CCN=CC3=C(O)CC(c4ccccc4)CC3=O)CC2)cc1 (centres unmarked) | -11.9 |
| O=C(Nc1ccc(N2CCOCC2)nc1)c1ccccc1Cl | 13.2 |
| CC1=NN(C(=S)Nc2ccccc2)C(C)(C)C1 | 13.6 |
| CCCC(=O)Nc1ccc2c(c1)nc(CN1CCN(C(C)=O)CC1)n2C | 5.31 |
| CN(C)/C=N/C(=S)Nc1ccccc1 | 6.9 |
| CC(C)(C)c1ccc(C(=O)CCCSC2=C(C#N)C(c3ccco3)C3=C(CCCC3=O)N2)cc1 (centres unmarked) | 4.64 |
| Cc1ccc2nc(C(=O)N3CCc4c([nH]c5ccccc45)C3c3ccccn3)cn2c1 (centres unmarked) | 10.9 |
| CC(=O)NC1=NN(C(C)=O)C(C)(CS(=O)(=O)c2ccc3ccccc3c2)S1 (centres unmarked) | 8.17 |
| CC(C)(C)n1nnc(CCc2nnn(C(C)(C)C)n2)n1 | 17.5 |
| CCOC(=O)c1cccc(NC(=O)Nc2ccc3c(c2)C(=O)OC3)c1 | 11.5 |
| COc1ccc(S(=O)(=O)N2CCCC(C(=O)Nc3cccnc3)C2)cc1Cl (centres unmarked) | -3.37 |
| CCOc1cc(C(=O)Nc2c(C)ccc3nsnc23)cc(OCC)c1OCC | -7.15 |
| CC(=O)Nc1ccc(S(=O)(=O)NCC(CCC(=O)O)C(F)(F)F)cc1 (centres unmarked) | 11.4 |
| Cc1ccc(N=C2NC(=O)/C(=C\c3cccs3)S2)cc1C | 12.4 |

| SMILES | hERG current change (%, negative = inhibition) at 1uM [%] |
| --- | --- |
| Cc1nnc(SCC(=O)c2c(N)n(Cc3ccccc3)c(=O)n(C)c2=O)n1C | -2.99 |
| O=C(O)CC(C(=O)Nc1ccc(F)cc1)C1CCCO1 (centres unmarked) | 13.4 |
| COc1ccc(C(=O)OC2CC[C@@]3(C)C4CCC5[C@]6(O)CC(O)[C@@]7(O)C(CN8CC(C)CCC8[C@@]7(C)O)[C@]6(O)C[C@@]53O[C@]24O)cc1OC (some centres unmarked) | 16.1 |
| C/C(Cc1ccccc1)=N\NC(=O)CNC(=O)c1ccccc1F | 13.1 |
| Cc1ccc(NC(=O)C2CCCN2C(=O)OC(C)(C)C)cc1C (centres unmarked) | 8.59 |
| O=C(CN1CCN(S(=O)(=O)c2ccc(F)cc2)CC1)Nc1ccc2c(c1)OCCO2 | -1.24 |
| CC(=O)N1CCc2cc(S(=O)(=O)NC(Cc3ccccc3)C(=O)Nc3cc(C)ccn3)ccc21 (centres unmarked) | -5.1 |
| Cn1c(SCC(=O)Nc2cccc3ccccc23)nc(O)cc1=O | 1.37 |
| Brc1cccc(/C=N/Nc2nc(N3CCCCC3)nc(N3CCCCC3)n2)c1 | 9.78 |
| CC1=N/C(=C/c2cc(Br)cc(Br)c2O)C(=O)O1 | 13.5 |
| c1ccc(CSc2nnc(-c3ccco3)n2Cc2ccco2)cc1 | -7.98 |
| Cc1ccccc1-n1cc[nH]c1=S | 4.22 |
| CCOc1ccc(S(=O)(=O)NCCC(=O)NCC2COc3ccccc3O2)cc1 (centres unmarked) | 11.3 |
| CCn1c(NC(=O)c2ccc(F)cc2)c2ccccc2nc1=O | 2.14 |
| CN(Cc1ccccc1)c1nc(N)c([N+](=O)[O-])c(Nc2cccc(F)c2)n1 | 5.53 |
| COc1cccc(N2CCN(CC(=O)Nc3nnc(-c4ccccc4)s3)CC2)c1 | 0.494 |
| COC(=O)CSc1ncnc2c(C)csc12 | 14.4 |
| Cn1c2ccccc2c2c(C(=O)N3CCC4(CC3)OCCO4)cn(C3CCCC3)c(=O)c21 | 4.27 |
| O=C(CCc1ccccc1)NCc1ccccc1 | -1.14 |
| O=C(CNC(=O)c1ccco1)OC(C(=O)c1ccccc1)c1ccccc1 (centres unmarked) | -0.922 |
| COc1cc(COCC(O)CN2CCN(Cc3ccc4c(c3)OCO4)CC2)cc(OC)c1OC.Cl (centres unmarked) | 16.1 |
| COc1ccccc1OCCNC(=O)CCNC(=O)c1ccccc1OC | 7.45 |
